# This excerpt belongs to a sample that is enriched for the strongest signals.
# B1: Fc-marm-DC-ASGPR (protein)
# chain: [in this place human IgG1 Fc and a few adjoining residues]ASSKFQRDLVTLRTDFSNFTSNTLAEIQALTSQGSSLQETIASLKAEVEGHKQELQAGASELQEHNKQKAHLGRCPHTCVCPSSFVCVPVHSEILLRVQQLVQDLNKLSCQVAILKNNATTERTCCPINWVEHQGSCYWFSRSGKTWPEAERYCQLENTHLVVINSREEQNFVQAHLGSAYTWMGLSDPEGVWKWVDGTDYSSGFQNWKPGQPDDWQGHGLGGGEDCAHFHPDGRWNDDVCQRSYHWVCEAGLTQASQDSHAS
# Experiments:
# Assay in all cases: glycan array binding signal (z-score within array); higher = stronger binding
# Conditions in all cases: glycan notation: IUPAC condensed, linker removed
# [1] = molecular target: Fuc(a1-2)Gal(b1-3)GalNAc
# Procedure, shortened: (§1)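 Glycan array binding is given as a within-array Z-score, which can be read as non-binding when negative. The arrays, 3228 of them, came from the Consortium for Functional Glycomics database and were retained only where the protein sequence was available. Z-scores were averaged across arrays of the same protein sequence at different concentrations or buffers and across linkers.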
# [2] = molecular target: Fuc(a1-2)Gal6S(b1-4)Glc6S
# Procedure, shortened: as §1
# [3] = molecular target: Fuc(a1-2)[Gal(a1-3)]Gal(b1-3)GalNAc(b1-3)Gal(a1-4)Gal(b1-4)Glc
# Procedure, shortened: as §1
# [4] = molecular target: Fuc(a1-2)[Gal(a1-3)]Gal(b1-4)Glc
# Procedure, shortened: as §1
# [5] = molecular target: Fuc(a1-2)[GalNAc(a1-3)]Gal(b1-4)GlcNAc(b1-2)Man(a1-3)[Fuc(a1-2)[GalNAc(a1-3)]Gal(b1-4)GlcNAc(b1-2)Man(a1-6)]Man(b1-4)GlcNAc(b1-4)GlcNAc
# Procedure, shortened: as §1
# [6] = molecular target: Fuc(a1-3)[GalNAc(b1-4)]GlcNAc
# Procedure, shortened: as §1
# [7] = molecular target: Gal(a1-3)Gal(b1-4)GlcNAc
# Procedure, shortened: as §1
# [8] = molecular target: Gal(a1-4)Gal(b1-4)GlcNAc(b1-3)Gal(b1-4)Glc
# Procedure, shortened: as §1
# [9] = molecular target: Gal(b1-3)Gal(b1-4)GlcNAc
# Procedure, shortened: as §1
# [10] = molecular target: Gal(b1-3)GalNAc(b1-3)Gal
# Procedure, shortened: as §1
# [11] = molecular target: Gal(b1-3)[Neu5Ac(a2-6)]GalNAc
# Procedure, shortened: as §1
# [12] = molecular target: Gal(b1-4)GlcNAc(b1-2)Man(a1-3)[Gal(b1-4)GlcNAc(b1-2)Man(a1-6)][GlcNAc(b1-4)]Man(b1-4)GlcNAc(b1-4)[Fuc(a1-6)]GlcNAc
# Procedure, shortened: as §1
# [13] = molecular target: Gal(b1-4)GlcNAc(b1-2)[Gal(b1-4)GlcNAc(b1-6)]Man(a1-6)[Gal(b1-4)GlcNAc(b1-2)Man(a1-3)]Man(b1-4)GlcNAc(b1-4)[Fuc(a1-6)]GlcNAc
# Procedure, shortened: as §1
# [14] = molecular target: Gal(b1-4)GlcNAc(b1-3)Gal(b1-4)GlcNAc(b1-3)Gal(b1-4)GlcNAc
# Procedure, shortened: as §1
# [15] = molecular target: Gal(b1-4)GlcNAc(b1-3)Gal(b1-4)GlcNAc(b1-3)Gal(b1-4)GlcNAc(b1-3)Gal(b1-4)GlcNAc(b1-2)Man(a1-3)[Gal(b1-4)GlcNAc(b1-3)Gal(b1-4)GlcNAc(b1-3)Gal(b1-4)GlcNAc(b1-3)Gal(b1-4)GlcNAc(b1-2)Man(a1-6)]Man(b1-4)GlcNAc(b1-4)[Fuc(a1-6)]GlcNAc
# Procedure, shortened: as §1
# [16] = molecular target: Gal(b1-4)GlcNAc(b1-3)[GlcNAc(b1-6)]Gal(b1-4)GlcNAc
# Procedure, shortened: as §1
# [17] = molecular target: Gal3S(b1-4)GlcNAc
# Procedure, shortened: as §1
# [18] = molecular target: Gal3S6S(b1-4)GlcNAc6S
# Procedure, shortened: as §1
# [19] = molecular target: Gal6S(b1-4)Glc6S
# Procedure, shortened: as §1
# [20] = molecular target: GalNAc(a1-3)GalNAc(b1-3)Gal(a1-4)Gal(b1-4)Glc
# Procedure, shortened: as §1
# [21] = molecular target: GalNAc(a1-3)GalNAc(b1-3)Gal(a1-4)Gal(b1-4)GlcNAc
# Procedure, shortened: as §1
# [22] = molecular target: GalNAc(b1-4)GlcNAc
# Procedure, shortened: as §1
# [23] = molecular target: GalNAc(b1-4)GlcNAc(b1-3)GalNAc(b1-4)GlcNAc
# Procedure, shortened: as §1
# [24] = molecular target: GalNAc(b1-4)GlcNAc6S
# Procedure, shortened: as §1
# [25] = molecular target: GlcA(b1-3)Gal
# Procedure, shortened: as §1
# [26] = molecular target: GlcNAc(a1-4)Gal(b1-4)GlcNAc(b1-3)Gal(b1-4)GlcNAc
# Procedure, shortened: as §1
# [27] = molecular target: GlcNAc(b1-2)Gal(b1-3)GalNAc
# Procedure, shortened: as §1
# [28] = molecular target: GlcNAc(b1-3)Gal(b1-4)GlcNAc(b1-3)Gal(b1-4)GlcNAc(b1-2)Man(a1-3)[GlcNAc(b1-3)Gal(b1-4)GlcNAc(b1-3)Gal(b1-4)GlcNAc(b1-2)Man(a1-6)]Man(b1-4)GlcNAc(b1-4)GlcNAc
# Procedure, shortened: as §1
# [29] = molecular target: GlcNAc(b1-3)Gal(b1-4)GlcNAc(b1-3)Gal(b1-4)GlcNAc(b1-3)Gal(b1-4)GlcNAc(b1-2)[GlcNAc(b1-3)Gal(b1-4)GlcNAc(b1-3)Gal(b1-4)GlcNAc(b1-3)Gal(b1-4)GlcNAc(b1-6)]Man(a1-6)[GlcNAc(b1-3)Gal(b1-4)GlcNAc(b1-3)Gal(b1-4)GlcNAc(b1-3)Gal(b1-4)GlcNAc(b1-2)Man(a1-3)]Man(b1-4)GlcNAc(b1-4)[Fuc(a1-6)]GlcNAc
# Procedure, shortened: as §1
# [30] = molecular target: GlcNAc(b1-3)Gal(b1-4)GlcNAc(b1-3)[GlcNAc(b1-3)Gal(b1-4)GlcNAc(b1-3)]GalNAc
# Procedure, shortened: as §1
# [31] = molecular target: GlcNAc(b1-3)[GlcNAc(b1-6)]Gal(b1-4)GlcNAc
# Procedure, shortened: as §1
# [32] = molecular target: GlcNAc(b1-4)GlcNAc
# Procedure, shortened: as §1
# [33] = molecular target: Kdn(a2-3)Gal(b1-3)GalNAc
# Procedure, shortened: as §1
# [34] = molecular target: Man(a1-2)Man(a1-3)[Man(a1-6)]Man(a1-6)[Man(a1-2)Man(a1-3)]Man(b1-4)GlcNAc(b1-4)GlcNAc
# Procedure, shortened: as §1
# [35] = molecular target: Neu5Ac(a2-3)Gal(b1-3)[Neu5Ac(a2-6)]GalNAc
# Procedure, shortened: as §1
# [36] = molecular target: Neu5Ac(a2-3)Gal(b1-4)GlcNAc(b1-2)Man(a1-3)[GlcNAc(b1-4)][Neu5Ac(a2-3)Gal(b1-4)GlcNAc(b1-2)Man(a1-6)]Man(b1-4)GlcNAc(b1-4)GlcNAc
# Procedure, shortened: as §1
# [37] = molecular target: Neu5Ac(a2-3)Gal(b1-4)GlcNAc(b1-6)GalNAc
# Procedure, shortened: as §1
# [38] = molecular target: Neu5Ac(a2-3)Gal(b1-4)[Fuc(a1-3)]GlcNAc(b1-6)[Gal(b1-3)]GalNAc
# Procedure, shortened: as §1
# [39] = molecular target: Neu5Ac(a2-3)[GalNAc(b1-4)]Gal(b1-4)Glc
# Procedure, shortened: as §1
# [40] = molecular target: Neu5Ac(a2-6)Gal(b1-4)GlcNAc(b1-6)[Gal(b1-3)GlcNAc(b1-3)]Gal(b1-4)Glc
# Procedure, shortened: as §1
# [41] = molecular target: Neu5Ac(a2-6)GalNAc
# Procedure, shortened: as §1
# [42] = molecular target: Neu5Ac(a2-6)GalNAc(b1-4)GlcNAc6S
# Procedure, shortened: as §1
# [43] = molecular target: Neu5Ac(a2-8)Neu5Ac(a2-3)Gal(b1-4)Glc
# Procedure, shortened: as §1
# [44] = molecular target: Neu5Ac(a2-8)Neu5Ac(a2-3)[GalNAc(b1-4)]Gal(b1-4)Glc
# Procedure, shortened: as §1
# [45] = molecular target: Neu5Gc(a2-8)Neu5Gc(a2-3)Gal(b1-4)GlcNAc
# Procedure, shortened: as §1
binder,measurement,setting,value
B1,glycan array binding signal (z-score),[1],-0.517
same,glycan array binding signal (z-score),[2],0.129
same,glycan array binding signal (z-score),[3],-0.516
same,glycan array binding signal (z-score),[4],-0.109
same,glycan array binding signal (z-score),[5],3.54
same,glycan array binding signal (z-score),[6],3.37
same,glycan array binding signal (z-score),[7],-0.347
same,glycan array binding signal (z-score),[8],-0.396
same,glycan array binding signal (z-score),[9],-0.491
same,glycan array binding signal (z-score),[10],-0.491
same,glycan array binding signal (z-score),[11],-0.317
same,glycan array binding signal (z-score),[12],-0.58
same,glycan array binding signal (z-score),[13],-0.51
same,glycan array binding signal (z-score),[14],-0.487
same,glycan array binding signal (z-score),[15],-0.539
same,glycan array binding signal (z-score),[16],-0.475
same,glycan array binding signal (z-score),[17],-0.244
same,glycan array binding signal (z-score),[18],1.25
same,glycan array binding signal (z-score),[19],0.296
same,glycan array binding signal (z-score),[20],3.29
same,glycan array binding signal (z-score),[21],3.61
same,glycan array binding signal (z-score),[22],3.28
same,glycan array binding signal (z-score),[23],3.33
same,glycan array binding signal (z-score),[24],3.26
same,glycan array binding signal (z-score),[25],-0.464
same,glycan array binding signal (z-score),[26],-0.539
same,glycan array binding signal (z-score),[27],-0.379
same,glycan array binding signal (z-score),[28],-0.171
same,glycan array binding signal (z-score),[29],-0.561
same,glycan array binding signal (z-score),[30],-0.432
same,glycan array binding signal (z-score),[31],-0.552
same,glycan array binding signal (z-score),[32],-0.331
same,glycan array binding signal (z-score),[33],-0.358
same,glycan array binding signal (z-score),[34],-0.487
same,glycan array binding signal (z-score),[35],-0.237
same,glycan array binding signal (z-score),[36],-0.561
same,glycan array binding signal (z-score),[37],3.4
same,glycan array binding signal (z-score),[38],-0.548
same,glycan array binding signal (z-score),[39],3.36
same,glycan array binding signal (z-score),[40],-0.387
same,glycan array binding signal (z-score),[41],3.24
same,glycan array binding signal (z-score),[42],3.51
same,glycan array binding signal (z-score),[43],-0.403
same,glycan array binding signal (z-score),[44],3.09
same,glycan array binding signal (z-score),[45],-0.454

# — the supplement of paper PMC8728848
